# In all, about 33,000 sequences were measured (“E-score (-0.5 to 0.5)”: median about -0.043, highest 2% from about 0.37 on). The list shows a part of the results.
# Target: T1, Upc2 (UniProt Q12151)
# T1 sequence: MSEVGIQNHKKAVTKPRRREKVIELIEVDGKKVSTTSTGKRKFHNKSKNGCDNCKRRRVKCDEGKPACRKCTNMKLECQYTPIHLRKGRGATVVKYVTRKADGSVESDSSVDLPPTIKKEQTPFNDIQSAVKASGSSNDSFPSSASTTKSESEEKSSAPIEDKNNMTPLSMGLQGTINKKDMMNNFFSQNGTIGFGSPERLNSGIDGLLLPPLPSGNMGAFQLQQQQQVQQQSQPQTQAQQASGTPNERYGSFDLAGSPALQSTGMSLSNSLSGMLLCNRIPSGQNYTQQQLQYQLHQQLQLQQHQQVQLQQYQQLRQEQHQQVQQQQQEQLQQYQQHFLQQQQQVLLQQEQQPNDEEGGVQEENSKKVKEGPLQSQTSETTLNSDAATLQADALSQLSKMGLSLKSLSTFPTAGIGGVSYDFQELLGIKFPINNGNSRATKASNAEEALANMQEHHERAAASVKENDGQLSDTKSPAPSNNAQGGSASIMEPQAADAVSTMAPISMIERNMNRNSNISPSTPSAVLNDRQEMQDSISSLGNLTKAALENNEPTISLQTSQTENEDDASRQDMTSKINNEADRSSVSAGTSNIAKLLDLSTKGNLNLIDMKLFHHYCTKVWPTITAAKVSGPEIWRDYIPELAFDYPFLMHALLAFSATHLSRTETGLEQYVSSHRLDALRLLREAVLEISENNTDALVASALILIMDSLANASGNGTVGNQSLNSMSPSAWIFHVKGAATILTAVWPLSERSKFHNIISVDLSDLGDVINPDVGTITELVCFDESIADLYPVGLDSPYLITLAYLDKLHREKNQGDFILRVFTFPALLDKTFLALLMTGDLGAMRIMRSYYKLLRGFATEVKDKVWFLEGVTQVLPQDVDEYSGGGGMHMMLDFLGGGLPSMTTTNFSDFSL
# Experiment: PBM E-score (8-mer binding enrichment) (E-score (-0.5 to 0.5)); higher = stronger / more preferred TF binding; most listed sequences are background and not binding sites
# Conditions: protein concentration: 200 nM; construct: GST-full length
# In short: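 PURExpress in vitro transcription/translation supplied GST-tagged yeast transcription factors, either full-length or DNA-binding domain. Applied at about 100-200 nM to universal all-10-mer Agilent arrays double-stranded by primer extension, the bound protein was detected with fluorescent anti-GST. E-scores, modified Wilcoxon-Mann-Whitney statistics, were given by the Universal PBM Analysis Suite to ungapped eight-base words pooled with their reverse complements after masliner normalisation.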
row,Sequence,PBM E-score
1,CGTTCCCC,0.333
2,TGAATGCA,-0.0537
3,AATCGTTG,0.142
4,AGAGGGAA,-0.35
5,CCGCAACC,-0.202
6,AAGTCATG,-0.114
7,CACTGAGA,-0.0162
8,AAATGAGA,-0.0182
9,ACACATTC,0.0508
10,CGGCAGAG,-0.145
11,AGTAAACT,0.118
12,AAATAGGT,-0.0209
13,GCGGACGA,-0.0197
14,ACCTGAAG,-0.141
15,AGCGCGTA,0.33
16,TGCATACA,-0.0128
17,CGGTACTA,-0.116
18,GTAGTCTA,0.048
19,CTACTAAG,-0.0846
20,ATCCCGAA,-0.061
21,TAAATTGA,-0.0257
22,AATGTTCT,-0.0724
23,AGAGCATG,-0.17
24,AGATCCGA,0.164
25,ATTTCCGC,0.0187

row,Sequence,PBM E-score
1,CGAGAGCA,0.157
2,AATTTCCC,-0.0871
3,AGACCGGA,-0.0184
4,ATCCCCTA,-0.25
5,AACCGGTC,-0.0339
6,CTTGAAAA,0.0485
7,CAGGCTAA,-0.0977
8,CGAAAACA,0.106
9,GTTACCTA,-0.186
10,CGCAAATC,0.0443
11,AAGCCTGT,-0.282
12,CGACTGTC,-0.0612
13,CGCCGCAC,-0.0582
14,CTGCCACA,-0.212
15,ACGCTCAA,0.0452
16,CGCGCCCG,-0.102
17,AGCACAAG,-0.199
18,GGATGATA,-0.136
19,AACTCTAA,-0.0333
20,CTGGCCAG,-0.143
21,CTCTAAAC,0.193
22,GCGAGCAA,0.168
23,CATTAGCC,-0.158
24,AGCCGACC,-0.0565
25,CCACTGAA,-0.119

row,Sequence,PBM E-score
1,CGTTGAAA,0.144
2,ACGAGATG,0.38
3,GCGTAAAA,0.302
4,ATGCGATG,0.112
5,GCTCTCTA,-0.142
6,TCACCAAA,0.025
7,CTTTTAGC,0.0779
8,TATCCAGA,-0.0529
9,CCGGGCCG,0.0549
10,ACACATGA,-0.106
11,ATAGCGTG,-0.0966
12,ATTGATTC,0.012
13,TCAACTGA,-0.267
14,AAATGGTG,-0.00418
15,AGGATAGC,0.199
16,ACCGTCTG,-0.109
17,AACAGAAC,-0.0133
18,CACCTTAC,-0.0573
19,AGGCTCTG,-0.193
20,TAGAAGGA,-0.154
21,CGCCATCA,-0.224
22,GGGGTGTA,-0.104
23,CGGGTTAA,0.208
24,AGCACCTA,-0.14
25,CATGACGG,-0.229

row,Sequence,PBM E-score
1,ATAGGTGC,0.0421
2,TCGTAGAA,0.39
3,CATTACAG,0.0141
4,AGGCATAG,-0.279
5,CCCCGGCA,-0.259
6,CGAGATAA,0.216
7,ATGGAATG,-0.113
8,ACTGTATC,0.0883
9,AACGCACC,0.12
10,AAAAGGGG,-0.144
11,GGAAATAA,0.0184
12,ATCTTCGC,0.151
13,ATACAGTC,-0.0278
14,CGTTGAGA,0.108
15,AGGCTTTC,-0.0495
16,ACAACTTG,-0.203
17,CCTAATGA,-0.148
18,ACTATTGG,-0.285
19,CTATGTCA,-0.221
20,ACCCTTGC,-0.165
21,ACACCACA,-0.0645
22,ACGGCAAC,0.184
23,GATTATGC,0.12
24,GATATAAA,-0.078
25,AAGAACCT,-0.161

row,Sequence,PBM E-score
1,CCCGAGCG,0.161
2,ACGCTCTC,0.0984
3,TCATATGA,-0.0405
4,GTAATTAA,0.19
5,GGTATCTA,0.0832
6,CTAACGTA,0.224
7,AGAGTGAC,-0.157
8,AAGCAGCC,-0.178
9,GGAAACGA,0.428
10,AACCGGTT,0.107
11,AATGCCAT,-0.00527
12,TCCGCCGA,-0.0672
13,AGAATTAA,-0.0706
14,AACCGGGT,-0.0866
15,ACACAGAA,-0.168
16,CAGGTCAG,-0.0218
17,GCAGGTCA,-0.133
18,ACTCACGG,0.0111
19,ACCGTGGA,-0.0649
20,CAGTAAGA,0.143
21,CCGACGAA,0.067
22,GCCTAGGC,-0.196
23,ACGTCTAG,0.0326
24,CCTGGCTC,0.00098
25,AGTGACCG,-0.0264

row,Sequence,PBM E-score
1,AGGTGAGC,-0.0394
2,ACCCCCTG,-0.249
3,GCCTGACC,-0.138
4,AGTGGTGC,0.0342
5,ATAGTGGG,-0.169
6,ACCACGCG,-0.093
7,GTCAACCA,-0.0456
8,ATGACGAC,-0.132
9,ACTAAACA,-0.109
10,CGTCATTA,-0.076
11,AACCAACA,0.105
12,CGTTTATC,0.425
13,ATCATCCC,-0.236
14,CGCGTGGA,-0.122
15,CGTGGCAG,-0.12
16,GTTAGGGA,0.0198
17,ATACAAAC,0.229
18,GTACTTAA,0.0488
19,CACAGGTC,-0.224
20,ATAGGCCG,-0.0512
21,CACGTTCG,0.0393
22,CTAGGAGA,-0.302
23,AACCGCGT,0.183
24,TGACTCCA,-0.303
25,TTAATAAA,0.204

row,Sequence,PBM E-score
1,GAATTGGA,-0.0632
2,CGTTGCCC,0.0273
3,CCCCTAAG,-0.258
4,CACGTAGC,-0.0699
5,CATGAACC,0.0199
6,AAGACTTC,-0.0696
7,CCGATACG,0.392
8,ACTCCTGG,-0.368
9,CCGTCAGG,-0.0615
10,GTAATGGA,0.0506
11,GACCATGC,0.1
12,CAACGTCA,-0.107
13,TCCAAAAA,-0.123
14,GAGACCGA,-0.0309
15,AGCCTGCC,0.0283
16,GGCGCCGA,-0.113
17,AACGAACA,0.426
18,ACCCAACG,-0.0397
19,ATCCATAC,0.152
20,GGGAGTAC,-0.134
21,ATGAAATA,-0.045
22,GGGTAGAA,-0.106

# From the supplement of paper PMC3334620
